# Data reported in publication PMC4336329 (PLoS ONE, 2015).
# Among all 310,000 compounds or so, about 14,000 (4.5%) showed an effect of 50% or more. The effect is printed as a negative number. The list shows a part of the results.
# Molecular target: human ether-à-go-go-related gene (hERG) potassium channel (human, UniProt Q12809)
# Experiment: primary screen, population patch clamp on CHO cells stably expressing hERG
# 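Note: peak tail current of the secondary pulse compared with the same well before compound.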
# human ether-à-go-go-related gene (hERG) potassium channel, sequence (Q12809 whole entry, looked up): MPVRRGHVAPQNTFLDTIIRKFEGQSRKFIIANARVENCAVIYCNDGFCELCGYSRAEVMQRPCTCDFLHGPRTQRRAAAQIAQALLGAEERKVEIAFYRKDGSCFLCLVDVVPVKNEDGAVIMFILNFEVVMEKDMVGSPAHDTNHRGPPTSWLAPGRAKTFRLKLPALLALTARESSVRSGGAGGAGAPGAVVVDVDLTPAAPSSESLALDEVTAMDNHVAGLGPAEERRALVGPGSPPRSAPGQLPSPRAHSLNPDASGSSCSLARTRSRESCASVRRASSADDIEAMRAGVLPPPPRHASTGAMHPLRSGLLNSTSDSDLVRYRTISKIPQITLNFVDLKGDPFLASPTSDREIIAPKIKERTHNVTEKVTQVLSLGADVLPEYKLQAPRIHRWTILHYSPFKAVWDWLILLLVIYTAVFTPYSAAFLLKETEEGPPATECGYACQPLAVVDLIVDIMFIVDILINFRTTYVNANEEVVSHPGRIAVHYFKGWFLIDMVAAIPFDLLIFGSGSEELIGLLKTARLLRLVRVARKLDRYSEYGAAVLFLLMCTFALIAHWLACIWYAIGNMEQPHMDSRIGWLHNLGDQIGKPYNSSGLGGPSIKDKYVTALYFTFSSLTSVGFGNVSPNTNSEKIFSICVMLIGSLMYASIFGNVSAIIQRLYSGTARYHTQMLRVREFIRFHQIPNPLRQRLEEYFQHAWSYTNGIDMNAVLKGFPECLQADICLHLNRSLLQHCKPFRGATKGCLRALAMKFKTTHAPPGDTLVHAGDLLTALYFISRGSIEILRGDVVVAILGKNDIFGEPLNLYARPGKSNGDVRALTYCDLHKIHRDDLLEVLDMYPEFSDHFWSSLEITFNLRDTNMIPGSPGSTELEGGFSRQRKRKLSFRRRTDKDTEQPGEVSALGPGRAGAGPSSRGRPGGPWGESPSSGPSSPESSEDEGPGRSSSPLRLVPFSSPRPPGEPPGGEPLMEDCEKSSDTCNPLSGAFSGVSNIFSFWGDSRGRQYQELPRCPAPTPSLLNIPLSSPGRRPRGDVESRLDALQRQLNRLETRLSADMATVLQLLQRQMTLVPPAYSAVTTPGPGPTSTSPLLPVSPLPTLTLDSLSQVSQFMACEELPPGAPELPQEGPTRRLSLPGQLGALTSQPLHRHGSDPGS
row,Structure (SMILES),"hERG current change (%, negative = inhibition) at 10uM [%]"
1,Br.Cc1ccc(N2Cc3ccccc3C2=N)cc1[N+](=O)[O-],-4.21
2,Clc1ccc(-n2nnc(-c3nccs3)n2)cc1Cl,25.7
3,CC(=O)Nc1ccc(NC(=O)CCC(=O)Oc2ccc(C)cc2)cc1,19.3
4,COc1cc(CCN2C(=O)N[C@@H](CCc3ccccc3)C(C(C)=O)=C2C)cc(OC)c1OC,-12.6
5,Cc1sc2ncnc(N/N=C/c3ccc(O)cc3)c2c1C,2.28
6,COc1ccc(-n2nc3c(c2NC(=O)c2ccc(S(=O)(=O)N4CCOCC4)cc2)CS(=O)(=O)C3)cc1,14.6
7,COc1ccccc1C(CNC(=O)C(C)Oc1ccc(Br)cc1)N1CCCC1 (stereo not drawn),-36.1
8,Cc1ccc(S(=O)(=O)C(CCC(=O)N2CCOCC2)S(=O)(=O)c2ccc(C)cc2)cc1,-4.64
9,O=C(/C=C/C=C/c1ccccc1)CC1(O)C(=O)Nc2ccccc21 (stereo not drawn),-0.376
10,N#Cc1ccc(OCC(=O)Nc2ccccc2NS(=O)(=O)c2cccs2)cc1,-22.1
11,O=C(NNc1cc(Br)c(O)c(Br)c1)c1ccccc1,4.27
12,CN(C(=O)COC(=O)c1ccc(C#N)cc1)c1ccccc1,-6.57
13,Cc1cc(C)cc(-n2nc(C)cc2N)c1,0.795
14,Cc1ccc(SC(C)C(=O)NC2CC2)cc1 (stereo not drawn),-10.3
15,Cc1ccc(NC(=O)COC(=O)Cn2cnc3ccccc32)cc1S(=O)(=O)N(C)C,6.28
16,COc1cc(OC)cc(C(=O)OCC(=O)NC2CCCCCC2)c1,-3.73
17,O=C(Nc1nc2ccccc2[nH]1)c1ccccc1O,13.5
18,O=C(Cc1cccs1)NCc1ccccc1Br,9.98
19,CC(=O)c1c(C)[nH]c(C(=O)OCc2ccc([N+](=O)[O-])cc2)c1C,5.23
20,CCC(CC)C(=O)Nc1nnc(-c2cccs2)s1,1.93
21,CN(C(=O)Cn1c(=O)oc2ccccc21)C1CCCCC1,-1.73
22,O=C(NCCCn1ccnc1)c1cc2ccccc2oc1=O,-10.6
23,O=C(CCNS(=O)(=O)c1ccc(OC(F)(F)F)cc1)N1CCN(S(=O)(=O)c2cccc(F)c2)CC1,-31.9

row,Structure (SMILES),"hERG current change (%, negative = inhibition) at 10uM [%]"
1,COc1cc(C(=O)NCc2ccncc2)cc(Br)c1OCc1ccccc1,-31.2
2,CCc1ccc2c(c1)cc(CN(Cc1ccco1)C(C)=O)c1nnnn12,-25.5
3,COC(=O)c1ccc(NC(=O)Cn2nc(SC)n(N)c2=S)cc1,7.17
4,O=C(NCC1CCCO1)c1cc(-c2ccccc2F)no1 (stereo not drawn),24.7
5,COC(=O)c1ccc(CNC(=O)CSc2nc3ccccc3[nH]2)cc1,-15
6,CC1(C)CC(NC(=O)COc2ccc3ccc(=O)oc3c2)CC(C)(C)N1,16.6
7,Cc1nc2c3ccccc3n(Cc3ccccc3F)c2s1,18
8,Cc1cc(/C=C(/C#N)C(=O)Nc2ccccc2)c(C)n1-c1cccnc1,-28.5
9,COc1ccccc1NC(=O)Nc1cccc(C)n1,11.7
10,NC(=O)c1ccccc1NS(=O)(=O)c1ccccc1,-0.997
11,O=C(c1cnn(C(=O)c2ccc(O)cc2)c1)c1ccccc1O,16.5
12,Cc1ccc(NC(=O)CCSc2nnc(Cc3ccccc3)o2)cc1,-4.94
13,CC1(C)CC(CCNCc2ccc3c(c2)OCO3)(Cc2ccccc2)CCO1.Cl (stereo not drawn),-30.9
14,CCc1nnc(NS(=O)(=O)c2ccc(NC(=O)c3ccc(Br)cc3)cc2)s1,23.4
15,COc1ccc(N2C(=O)CC(N(CCc3ccc(S(N)(=O)=O)cc3)C(=S)Nc3ccccc3)C2=O)cc1 (stereo not drawn),12.5
16,O=C(COC(=O)c1ccc(O)cc1O)c1ccc2c(c1)OCO2,7.78
17,CC1CCN(C(=O)CSc2nc3ncccc3[nH]2)CC1,5.84
18,CCC(=O)n1nc(-c2ccc(Cl)cc2)nc1N,3.71
19,Nc1[nH]ncc1-c1ccc(Cl)cc1,27.9
20,O=C(CCn1c(=O)c2sccc2n(CC(=O)OCc2ccccc2)c1=O)NCc1ccccc1,5.45
21,COc1ccc(/C=N/N2C(=O)C3C4C=CC(C4)C3C2=O)cc1[N+](=O)[O-] (stereo not drawn),-6.14
22,CC1CCCCN1C(=O)CCn1c(=S)oc2ccccc21 (stereo not drawn),1.36
